Experimental data as given in PubChem BioAssay AID1345083 (National Center for Advancing Translational Sciences (NCATS), 2018).
The whole screen tested about 94,000 compounds, of which about 6,200 (6.6%) were called active. This list was built around the results that the source calls inconclusive (neither active nor inactive); the mix of calls is not that of the screen. The call rests on the fitted dose curve; in most records, active means well fitted inhibition curve with a large enough effect; inconclusive means small, poorly fitted or top-dose-only effect; inactive means flat fitted curve, though single readings scatter. Potencies of inconclusive entries are doubtful fits and often do not repeat.

Test: Cytotoxic Profiling in HEK 293 Cell Line of Diverse Libraries Using Quantitative High-Throughput Screening; further: nearly all actives have a fitted effect of over 60% in size
Conditions: HEK 293 viability, ATP luminescence (CellTiter-Glo), 48-72 h; series mostly up to 115 µM
Method in brief: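 Luminescence from cellular ATP, measured with CellTiter-Glo, indicates HEK 293 viability. Cells plated at 250 cells/well are treated with compound for 48 or 72 hr at 37 degree Celsius before reagent addition.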
Potency means the concentration at half of the fitted maximal effect; tags describe the fitted curve by direction and shape.

Compound | Potency
CCc1nc2c(c(-c3ccc(O)cc3)n1)CN(C(=O)c1ccc(C(F)(F)F)cc1)CC2 | inactive
Cc1cc(C(=O)N2c3ccccc3CC2c2nc(C(C)C)no2)nn1C (stereo unspecified) | inconclusive: 89.1 µM [inhibitor, single point]
O=C([C@@H]1C[C@H](Oc2ccccc2)CN1)N1CCOCC1 | inactive
O=C(c1ccc2ccccc2n1)N1CCC(c2n[nH]c(=O)n2-c2ccccc2)CC1 | inactive
Cn1ncc2c(C(=O)N3CCN(c4ncccn4)CC3)cc(-c3ccccc3C(F)(F)F)nc21 | inconclusive: 44.7 µM [inhibitor, partial curve, poor fit]
COc1ccccc1Nc1ccnc(N2CCC[C@H]2C(=O)N2CCCC2)n1 | inactive
CN(C)C[C@@H]1CN(Cc2cccnc2)C[C@H]1NC(=O)c1ccccc1Cl | inconclusive: 89.1 µM [inhibitor, single point]
CC1(c2ccccc2)N(Cc2ccccc2F)C(=O)OC12CCN(Cc1cccc(O)c1)CC2 (stereo unspecified) | inconclusive: 50.1 µM [inhibitor, partial curve, poor fit]
Cc1ncc2n1C(=O)N(C1CCN(C(=O)c3ccc(F)cc3)CC1)C2 | inactive
Oc1ccccc1CN1CCOC[C@H]1c1ncc(-c2ccc(C(F)(F)F)cc2)[nH]1 | active: 70.8 µM
CCN(CC)C(=O)C(C)[C@@H]1CC[C@@]2(C)Cc3sc(NC(=O)C4CC4)nc3[C@@H](C)[C@@H]2[C@H]1O (stereo partly specified) | inactive
CN(C)[C@@H]1CN(C(=O)c2cc(Cl)ccc2F)C[C@H]1CO | inactive
O=c1c2nc(Nc3ccc(C(F)(F)F)cc3)ccc2ncn1Cc1ccccn1 | inconclusive: 112 µM [inhibitor, single point]
C=CCN(C(=O)CC1COc2ccc(C(=O)N(C)C)cc2N1C)C(C)C (stereo unspecified) | inactive
CCCc1noc(-c2cn(C3CCN(C(=O)c4ccc(OC)nc4OC)CC3)nn2)n1 | inconclusive: 79.4 µM [inhibitor, partial curve, poor fit]
Cc1nc(-c2ccccc2)n(CC(=O)Nc2cc(C(F)(F)F)ccc2Cl)c(=O)c1CCO | inconclusive: 44.7 µM [inhibitor, partial curve, poor fit]
Cc1ccc(C(=O)N[C@H]2CO[C@H]3[C@@H]2OC[C@@H]3Nc2nccc(-c3ccc(-c4ccccc4)cc3)n2)cc1 | active: 12.6 µM
CN(Cc1cnn(C)c1)C(=O)c1csc2nc(-c3cccc(C(F)(F)F)c3)cn12 | inconclusive: 50.1 µM [inhibitor, partial curve, poor fit]
COc1ccc2c(c1)OCC(CNC(=O)c1ccc(C(C)C)n(C)c1=O)C2 (stereo unspecified) | inconclusive: 50.1 µM [inhibitor, partial curve, poor fit]
CCOc1ccccc1CN1CCCCCCNC(=O)CC1 | inconclusive: 100 µM [inhibitor, single point]
COc1ccc(Cl)cc1C(=O)NC1CCN(c2cc(-c3cccs3)[nH]n2)CC1 | inconclusive: 50.1 µM [inhibitor, partial curve, poor fit]

Compound | Potency
COc1cc(CNc2nc(-c3c(C)noc3C)cc3cc(CN(C)C)oc23)cc(OC)c1 | inconclusive: 63.1 µM [inhibitor, partial curve, poor fit]
Cc1ccc(NC(=O)c2ccc(Cn3ccn4nc5c(c4c3=O)CCCC5)cc2)cc1 | inconclusive: 39.8 µM [inhibitor, full curve, poor fit]
COc1ccc(CNC(=O)c2cc(-c3cccc(C(F)(F)F)c3)c3nncn3n2)cc1 | inconclusive: 79.4 µM [inhibitor, partial curve, poor fit]
COc1ccccc1CC(=O)N1CCCc2ncc(C(=O)NCc3cccc(Cl)c3)cc21 | inconclusive: 89.1 µM [inhibitor, single point]
O=C(CCN1CCCCO1)N1CCCC(CCc2ccc(F)c(F)c2)C1 (stereo unspecified) | inconclusive: 35.5 µM [inhibitor, partial curve]
COCC(=O)N1CCCC(C(=O)N2CCC(c3nc4ncccc4[nH]3)CC2)C1 (stereo unspecified) | inactive
Cc1ccsc1-c1nc(-c2nnn3c2COC(c2ccccc2Cl)C3)no1 (stereo unspecified) | inconclusive: 56.2 µM [inhibitor, partial curve, poor fit]
Cc1noc(-c2cccs2)c1C(=O)N(C)Cc1ccccc1 | inconclusive: 89.1 µM [inhibitor, single point]
O=C(NC1CCN(c2cc(-c3ccccc3)[nH]n2)C1)c1ccc2cc[nH]c2c1 (stereo unspecified) | inconclusive: 50.1 µM [inhibitor, partial curve, poor fit]
COc1ccc(NC(=O)O[C@@H]2CC[C@]3(C)C(CC[C@@H](O)[C@H]3CC(=O)NCc3ccc4c(c3)OCO4)[C@]2(C)CO)cc1 (stereo partly specified) | inconclusive: 89.1 µM [inhibitor, single point]
CC(C)(C)c1noc(-c2nnn3c2COC(c2ccc(F)cc2)C3)n1 (stereo unspecified) | inconclusive: 44.7 µM [inhibitor, partial curve, poor fit]
N#Cc1ccccc1CN1CC[C@H]2C(=O)NCCCCCCN(Cc3ccncc3)[C@@H]2C1 | inconclusive: 89.1 µM [inhibitor, single point]
COc1ccccc1-c1cnc(Nc2cccc(N[S+](C)(=O)[O-])c2)c2c1CCO2 | active: 39.8 µM
Cc1ccc(-c2nc(CNC(=O)C3(N)CC3)[nH]c2-c2ccccn2)cc1 | inconclusive: 56.2 µM [inhibitor, partial curve, poor fit]
C[C@H]1CCCN1C(=O)c1nnc(COc2cccc(C(F)(F)F)c2)n1-c1ccccc1 | inconclusive: 89.1 µM [inhibitor, partial curve]
Cc1cc(C(=O)N2CCC3(CC2)NCCc2c3[nH]c3ccccc23)nn1C | inconclusive: 89.1 µM [inhibitor, single point]
Cc1noc(C)c1-c1cc2c(cc(C)n2CCN(C)C)c(-c2ccccc2)n1 | inconclusive: 56.2 µM [inhibitor, single point]
O=C(c1noc2c1CCCC2)N1CCN(c2cccc(Cl)c2)C(=O)C1 | inconclusive: 56.2 µM [inhibitor, partial curve, poor fit]
O=S(=O)(N[C@H]1CO[C@H]2[C@@H]1OC[C@@H]2n1nnnc1Oc1ccc(-n2ccnc2)cc1)c1ccc2ccccc2c1 | inconclusive: 35.5 µM [inhibitor, partial curve, poor fit]
O=C(c1ccc(Cl)cc1)N1CC2(CCN(CC3CC3)CC2)Cc2ccccc21 | inconclusive: 50.1 µM [inhibitor, partial curve, poor fit]
COc1ccc(CCNC(=O)c2cc(-c3ccc(OC)cc3)nc3c2cnn3C)cc1 | inconclusive: 79.4 µM [inhibitor, partial curve, poor fit]

Compound | Potency
COCC(=O)N1CCN(C(=O)c2nc3cccnc3n(Cc3ccccc3)c2=O)CC1 | inactive
O=C(C1CCCC1)N1CCC(C(=O)N2CCCC2c2nc3ccncc3[nH]2)CC1 (stereo unspecified) | inactive
COc1cccc(NC(=O)C2(C)COCc3cnc(Nc4ccccc4)nc32)c1 (stereo unspecified) | active: 100 µM
COc1ccc(-c2cnc3[nH]cc(CC(=O)N4CCC(OC)CC4)c3c2)cc1 | inconclusive: 100 µM [inhibitor, partial curve]
Cc1ccccc1C(=O)N1CC(C(=O)N(C)C)C2(CCOCC2)C1 (stereo unspecified) | inactive
CC(=O)N1CCC(N2CCC[C@H]2c2nc(-c3ccc(-c4cncnc4)nc3)no2)CC1 | inactive
CN1CCC2(C1)CN(CC1CCOCC1)c1ccc(C(=O)NCc3ccccc3)cc12 (stereo unspecified) | inconclusive: 126 µM [inhibitor, single point]
COc1cccc(CC(=O)N2CCCn3nc(C)c(-c4ccccc4C(C)C)c32)c1 | inconclusive: 79.4 µM [inhibitor, partial curve, poor fit]
O=C(Nc1ccc(=O)n2c1[C@@H]1C[C@@H](CN(S(=O)(=O)c3ccccc3)C1)C2)c1ccc2c(c1)OCO2 | inconclusive: 3.98 µM [inhibitor, full curve, poor fit]
Cc1ccc(C(=O)N2CCC3(CC2)[C@H](O)C[C@@H]3OCCO)s1 | inactive
Cn1nc(C(=O)N2CCN(c3cc(-c4ccccc4)[nH]n3)CC2)c2ccccc21 | inconclusive: 50.1 µM [inhibitor, partial curve, poor fit]
CN1CCC(N2CC[C@H](c3nc4ccccc4s3)C2)CC1 | active: 31.6 µM
CCc1noc(-c2cccn3c(CNC(=O)c4ccc(Cl)cc4)nnc23)n1 | inconclusive: 100 µM [inhibitor, single point]
COCC[C@]1(O)CCN(C(=O)Cc2coc3cc(C)c(Cl)cc23)C[C@H]1C | inconclusive: 56.2 µM [inhibitor, partial curve, poor fit]
O=C(N[C@H]1CO[C@H]2[C@@H]1OC[C@@H]2n1cc(CC2CCCCC2)nn1)C1CCCCC1 | inconclusive: 126 µM [inhibitor, single point]
CC(C)(C)c1ccc(C(=O)N2CCC3(C2)NC(=O)N(Cc2ccccc2)C3=O)cc1 (stereo unspecified) | inconclusive: 56.2 µM [inhibitor, partial curve, poor fit]
c1ccc(Nc2cc3c(cn2)NCCN(Cc2ccsc2)C3)cc1 | inconclusive: 89.1 µM [inhibitor, partial curve, poor fit]
CN(Cc1ccc(F)cc1)c1ccc2ncc(Nc3ccncc3)n2n1 | inconclusive: 89.1 µM [inhibitor, partial curve]
CNC(=O)c1cc(C)nc2onc(C3CCN(C(=O)Cc4ccc(OC)cc4)C3)c12 (stereo unspecified) | inactive
